Results published in PubChem BioAssay (NCATS).
The inconclusive results got no clear call from the source; some entries with a clear call stand among them for comparison. Potencies of inconclusive entries are left out as doubtful fits. Active and inactive are the calls of the source. The call rests on the fitted dose curve; in most records, active means well fitted curve in the direction sought with a large enough effect; inconclusive means small, poorly fitted or top-dose-only effect, or another doubt; inactive means no such curve, though single readings can be large; an effect the other way counts as inactive or inconclusive.

Key:
[1] = qHTS for Inhibitors of Plasmodium falciparum (DD2) proliferation (AID 504314); conditions: P. falciparum Dd2 in erythrocytes, SYBR Green growth, 72 h; series mostly up to 6.11 µM
Outline: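 Fluorescence read-out (ex 485/em 535 nm) of SYBR Green-stained parasite DNA quantifies intraerythrocytic growth. Cultures at 0.3% parasitemia and 2.5% hematocrit were treated for 72 h; data normalized to DMSO and 0.29 uM artemisinin wells.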

[2] = qHTS for Inhibitors of Plasmodium falciparum (GB4) proliferation (AID 504315); further: nearly all actives have a fitted effect of over 50% in size; conditions: P. falciparum GB4 in erythrocytes, SYBR Green DNA, 72 h; activity change, negative = inhibition: at 6.7 µM (top of the series)
Outline: (§1)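 Erythrocytes infected with P. falciparum line (0.3% parasitemia, 2.5% hematocrit final) incubated with compounds 72 h at 37 °C, 5% CO2; SYBR Green lysis buffer added, fluorescence read next day. Normalized to 0.29 uM artemisinin and DMSO.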

[3] = qHTS for Inhibitors of Plasmodium falciparum (7G8) proliferation (AID 504316); further: nearly all actives have a fitted effect of over 65% in size; conditions: P. falciparum 7G8 in erythrocytes, SYBR Green DNA, 72 h; activity change, negative = inhibition: at 6.7 µM (top of the series)
Outline: as §1

[4] = qHTS for Inhibitors of Plasmodium falciparum (HB3) proliferation (AID 504318); further: nearly all actives have a fitted effect of over 60% in size; conditions: P. falciparum HB3 in erythrocytes, SYBR Green DNA, 72 h; activity change, negative = inhibition: at 7.21 µM (top of the series)
Outline: as §1

[5] = qHTS for Inhibitors of Plasmodium falciparum (CP250) proliferation (AID 504320)
Outline: as §1
Potency means the concentration at half of the fitted maximal effect; tags describe the fitted curve by direction and shape.

SMILES | Potency [1] | Potency [2] | Potency [3] | Potency [4] | Potency [5]
CCCCCCC#Cc1cc(OC)c(OC)cc1C(N1CC(C)c2ccccc21)N1CC(C)c2ccccc21 (stereo not given) | inconclusive [inhibitor, single point] | inconclusive [inhibitor, single point] | inconclusive [inhibitor, single point] | inconclusive [inhibitor, single point] | inconclusive [inhibitor, single point]
CCCNC(=O)N1C2=NC(C(=O)OC)=C(C(=O)OC)[C@@H]3N(C)c4ccc(OC)cc4[C@]23C[C@H]1C(=O)OC | inconclusive [inhibitor, single point] | inconclusive [inhibitor, single point] | active: 1690 nM | active: 2940 nM | inconclusive [inhibitor, single point]
CCN1C(=S)NC(c2cccc(C(F)(F)F)c2)C(C(=O)OC)=C1C (stereo not given) | inconclusive [inhibitor, partial curve] | inconclusive [inhibitor, partial curve] | inconclusive [inhibitor, single point] | inconclusive [inhibitor, single point] | inconclusive [inhibitor, single point]
CCc1cc2c(nc1CC)CCN(CCC(C)=NOC[C@H]1O[C@H](c3ccccc3)C=C[C@H]1Oc1ccc(OC)cc1)C2 | inconclusive [inhibitor, single point] | inconclusive [inhibitor, partial curve] | active: 1690 nM | inconclusive [inhibitor, partial curve] | inconclusive [inhibitor, partial curve]
